Among all 46,000 compounds or so, about 60 (0.1%) were called active. Another 3% or so got no clear call; they are omitted. Calls come from the whole dose curve; as a rule, active = well fitted inhibition curve with a large enough effect; inconclusive = small, poorly fitted or top-dose-only effect; inactive = no such curve, though single readings can be large or run the other way. The list shows a part of the results.
Assay: Primary qHTS assay for Inhibitors of ovarian cancer metastasis using an organotypic tumor microenvironment (TME) model.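 For activity change, negative = inhibition: plate controls were DMSO wells for no effect and tomatine positive control wells for full effect.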 Note: nearly all actives have a fitted effect of over 65% in size.
Details: SKOV3ip1-GFP adhesion/invasion on 3D omental model, fluorescence; series mostly up to 45.8 µM; activity change, negative = inhibition: at the top concentration
Summary of the method: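 Adhesion/invasion was scored as fixed GFP-labeled SKOV3ip1 cell counts (488/509 nm), normalized to DMSO and tomatine controls. Cancer cells in serum-free medium, with four compound doses (0.36-46 umol/L), sat 2 hr at RT then 16 hr at 37 C on a 48 hr fibroblast/mesothelial/ECM culture.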
For `Cc1nn(CC(=O)Nc2ccc(OC(F)(F)F)cc2)c(=O)c2c(C)n(-c3ccc(Cl)cc3)nc12`, the “activity change, negative = inhibition” value was inactive: 3.58%.
For `COc1ccc(OCc2ccc(-c3nc(C#N)c(NC(C)c4ccccc4)o3)o2)cc1` (stereo not given), the “activity change, negative = inhibition” value was inactive: 11%.
For `Cc1cccc(NC(=O)CSc2ncc(-c3ccccc3)[nH]2)c1C`, the “activity change, negative = inhibition” value was inactive: -1.25%.
For `Cc1cccc(Nc2nc(N)nc(N)c2S(=O)(=O)c2ccccc2)c1`, the “outcome” value was “inactive”.
With `O=C(c1ccccc1F)N1c2ncnn2C2(CCCCC2)[C@@H]2CCCC[C@@H]21` the “activity change, negative = inhibition” value was inactive: -9.98%.
In the case of `CCSc1ncc(Cl)c(C(=O)Nc2nnc(CC)s2)n1`, the “activity change, negative = inhibition” value is reported as inactive: -9.77%.
For `CCOc1ccc2oc(=O)cc(CN3CCN(C(=O)c4ccc(OC)c(OC)c4)CC3)c2c1`, the “activity change, negative = inhibition” value was inactive: -21.9%.
With `O=C(C1CCN(c2ncnc3c2nc2n3CCCCC2)CC1)N1CCN(c2ccccc2F)CC1` the “activity change, negative = inhibition” value was inactive: 7.87%.
For `CCC(C(=O)NCCc1ccccc1)n1nc(C)c2sc3ccccc3c2c1=O` (stereo not given), the “activity change, negative = inhibition” value was inactive: 8.04%.
In the case of `Cc1c(C)n(Cc2ccc(F)cc2)c2ccc(C(=O)N3CCN(c4ccc(F)cc4)CC3)cc12`, the “activity change, negative = inhibition” value is reported as inactive: -0.526%.
With `COc1ccc(C2=C(C)C(N3CCC(C(=O)Nc4ccccc4F)CC3)=NS2(=O)=O)cc1` the “activity change, negative = inhibition” value was inactive: -6.89%.
In the case of `CC(=O)N1CCCc2cc(S(=O)(=O)N3CCCC(C(=O)NCc4ccccc4Cl)C3)ccc21` (stereo not given), the “activity change, negative = inhibition” value is reported as inactive: 0.184%.
With `CCOC(=O)c1ccccc1NC(=O)CN(c1cccc(C)c1C)S(=O)(=O)c1ccccc1` the “outcome” value was “inactive”.
With `Cc1ccc(-n2c(=O)c3c4c(sc3n(Cc3cc(=O)n5cc(Cl)ccc5n3)c2=O)CCC4)cc1C` the “activity change, negative = inhibition” value was inactive: -0.939%.
In the case of `COc1ccccc1CCNC(=O)Cc1ccc(NC(=O)N2CCSc3ncccc32)cc1`, the “activity change, negative = inhibition” value is reported as inactive: 7.64%.
For `Cc1ccc2oc(-c3ccc(Cl)c(NC(=O)Cc4ccccc4)c3)nc2c1`, the “activity change, negative = inhibition” value was inactive: 0.469%.
In the case of `CCCNS(=O)(=O)c1cc(-c2nn3c(C)nnc3c3ccccc23)ccc1C`, the “outcome” value is reported as “inactive”.
For `COc1ccccc1CNC(=O)c1cc2c(=O)oc3ccc(C)cc3c2s1`, the “activity change, negative = inhibition” value was inactive: 0.132%.
For `COc1ccc(CNC(=O)c2cc3c(=O)n(Cc4cccnc4)ccc3nc2C)cc1`, the “activity change, negative = inhibition” value was inactive: -0.606%.
For `Cc1cc(C)cc(NC(=O)Cc2csc(C)n2)c1`, the “outcome” value was “inactive”.
In the case of `COc1cccc(NC(=O)CSc2nc3c([nH]c4ccccc43)c(=O)n2-c2cc(C)cc(C)c2)c1`, the “activity change, negative = inhibition” value is reported as inactive: -4.41%.
With `CC(=O)c1ccc(S(=O)(=O)N2CCn3cccc3C2c2ccccc2F)cc1` (stereo not given) the “activity change, negative = inhibition” value was inactive: -15.2%.
In the case of `Cc1cccc(C)c1OCc1nc2c3cnn(-c4ccccc4F)c3ncn2n1`, the “activity change, negative = inhibition” value is reported as inactive: -4.37%.
In the case of `CC(C)(C)c1ccc(OCc2nc3ccccc3n2CCOc2ccccc2)cc1`, the “activity change, negative = inhibition” value is reported as inactive: -5.23%.
In the case of `CCc1cccc(OCC(=O)Nc2ccc(S(=O)(=O)Nc3ncccn3)cc2)c1`, the “activity change, negative = inhibition” value is reported as inactive: -2.77%.
For `CCOc1ccccc1NC(=O)C1CCN(S(=O)(=O)c2ccc3[nH]c(=O)oc3c2)CC1`, the “activity change, negative = inhibition” value was inactive: 17.2%.
For `CCC(C)NC(=O)c1c(C)oc2ncn(CC(C)C)c(=O)c12` (stereo not given), the “activity change, negative = inhibition” value was inactive: 4.87%.
In the case of `COc1ccc(-c2nc3ccccc3n3c(-c4cccc(C)c4)c4c(=O)n(C)c(=O)n(C)c4c23)cc1OC`, the “outcome” value is reported as “inactive”.
For `O=C(CCS(=O)(=O)c1cc(Br)cc2c1N(C(=O)C1CC1)CC2)N1CCN(c2cccc(Cl)c2)CC1`, the “activity change, negative = inhibition” value was inactive: 1.67%.
In the case of `COc1cc(NC(=O)C2CCN(C(=O)c3sc4nc[nH]c(=O)c4c3C)CC2)cc(OC)c1OC`, the “outcome” value is reported as “inactive”.
In the case of `Cc1cc(C(=O)N2CCN(c3ccccc3)CC2)c2c(C)nn(-c3cccc(F)c3)c2n1`, the “activity change, negative = inhibition” value is reported as inactive: 9.47%.
In the case of `CCCCNC(=O)CSc1nc2cc3c(cc2c(=O)n1CCCC(=O)NCCc1ccc(OC)c(OC)c1)OCO3`, the “outcome” value is reported as “inactive”.
For `CC1=C(C(=O)OC2CCCC2)C(c2c(Cl)cccc2Cl)CC(=O)N1` (stereo not given), the “activity change, negative = inhibition” value was inactive: -2.47%.
With `Cc1cc(C)c(NC(=O)c2nc3ccccc3nc2N2CCCCC2)c(C)c1` the “activity change, negative = inhibition” value was inactive: -19%.
In the case of `CCC(=O)N1CCc2cc(S(=O)(=O)NC(C(=O)NCCc3ccc(OC)c(OC)c3)C(C)C)ccc21` (stereo not given), the “activity change, negative = inhibition” value is reported as inactive: -19.2%.
With `O=C(Cn1c(=O)n(CCc2ccccc2)c(=O)c2cccnc21)Nc1ccc(F)cc1` the “activity change, negative = inhibition” value was inactive: -1.71%.
In the case of `CCCCNC(=O)C1CCC(Cn2c(=O)c3sccc3n(Cc3ccccc3)c2=O)CC1` (stereo not given), the “activity change, negative = inhibition” value is reported as inactive: 13.8%.
With `Cc1ccc(NC(=O)Cn2nc(C(F)(F)F)c3c2CCCC3)cc1C` the “outcome” value was “inactive”.
In the case of `CCc1ccc(-n2c(=O)c3c4c(sc3n(Cc3cc(=O)n5c(C)cccc5n3)c2=O)CCC4)cc1`, the “activity change, negative = inhibition” value is reported as inactive: 31.1%.
For `Cc1ccccc1CSc1nnc2[nH]c(=O)cc(-c3ccccc3)n12`, the “activity change, negative = inhibition” value was inactive: -5.03%.
With `Cc1ccc(CNC(=O)c2nn(-c3ccc(Cl)cc3)nc2CO)cc1` the “activity change, negative = inhibition” value was inactive: -2.04%.
With `CCOC(=O)c1[nH]c2c(c1Cc1ccccc1OC)C(=O)CC(c1ccc(OC)cc1)C2` (stereo not given) the “outcome” value was “inactive”.
With `CCOC(=O)c1ccccc1NC(=O)Cn1ncc2c1-c1ccccc1OC2` the “activity change, negative = inhibition” value was inactive: 1.1%.
For `Cc1cc(C)cc(NC(=O)CSc2oc(-c3ccccc3)nc2S(=O)(=O)c2ccc(Cl)cc2)c1`, the “activity change, negative = inhibition” value was inactive: -18.7%.
With `Cc1ccc(N2C(=O)c3n[nH]c(C)c3C2c2ccc(Cl)cc2)cc1` (stereo not given) the “activity change, negative = inhibition” value was inactive: 16.4%.
For `CC(=O)NC(CS)C(=O)O` (stereo not given), the “activity change, negative = inhibition” value was inactive: -22.9%.
With `Cc1ccc2c(c1)N(CC(=O)NCCc1ccccc1)C(=O)CO2` the “activity change, negative = inhibition” value was inactive: 5.65%.
With `CC(C)OCCCNC(=O)C(=O)Nc1c2c(nn1-c1ccccc1)CS(=O)(=O)C2` the “activity change, negative = inhibition” value was inactive: 20.5%.
With `CCc1ccccc1NS(=O)(=O)c1ccc2nc(-c3ccccc3)[nH]c2c1` the “activity change, negative = inhibition” value was inactive: -17.8%.
In the case of `COc1ccc(C(=O)NCC(c2ccco2)S(=O)(=O)c2ccc(F)cc2)cc1` (stereo not given), the “outcome” value is reported as “inactive”.
For `CN(C)CC[C@H](CSc1ccccc1)Nc1ccc(S(=O)(=O)NC(=O)c2ccc(N3CCN(Cc4ccccc4-c4ccc(Cl)cc4)CC3)cc2)cc1[N+](=O)[O-]`, the “activity change, negative = inhibition” value was inactive: 14.6%.
With `Cc1ccc(C)c(N2CCN(C(=O)CN3C(=O)COc4ccc(S(=O)(=O)N5CCCC5)cc43)CC2)c1` the “outcome” value was “inactive”.
For `CCc1ccccc1NC(=O)Nc1c(C)n(C)n(-c2ccccc2)c1=O`, the “activity change, negative = inhibition” value was inactive: -0.475%.
For `CCCC(=O)Nc1cc2nn(-c3ccccc3)nc2cc1C`, the “activity change, negative = inhibition” value was inactive: 9.4%.
For `Cc1ccc(C)c(Cn2c(=O)n(CCCCC(=O)NCc3ccc4c(c3)OCO4)c(=O)c3ccccc32)c1`, the “outcome” value was “inactive”.
For `CC(C)OCCCNc1ncnc2sc3c(c12)CCCC3`, the “outcome” value was “inactive”.
In the case of `CCCCn1cc(S(=O)(=O)c2cc(C)ccc2C)c(=O)c2cc(F)c(N3CCC(C)CC3)cc21`, the “outcome” value is reported as “inactive”.
In the case of `CCOC(=O)c1c(C)[nH]c(C)c1S(=O)(=O)N1CCC(C(=O)Nc2ccc(OCC)cc2)CC1`, the “activity change, negative = inhibition” value is reported as inactive: 0.82%.
With `CSc1ncc(C(=O)Nc2ccccc2C(F)(F)F)c(-c2ccccc2)n1` the “activity change, negative = inhibition” value was inactive: 1.79%.
With `CCCc1nc2nc(C)c(NS(=O)(=O)c3ccc(CC(C)C)cc3)c(=O)n2[nH]1` the “activity change, negative = inhibition” value was inactive: -11.6%.
